Experimental data reported in the supplement of paper PMC11417369.
± gives the standard deviation of the averaged measurements. The list shows a part of the results.

These sequences were tested on PfAP2-LT AP2 domain (GST-tagged) (assay: gcPBM binding intensity (ln(normalized median fluorescence intensity)); higher = stronger DNA binding).
Method in brief: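 Probes on an Agilent 4 × 180k array were primer-extended, double-stranded and 36 bp long, taken from intergenic genomic regions, with negative controls added. GST-tagged P. falciparum DNA-binding domains from E. coli, about 25 μg on average, were applied to the array for 1 h in 1× PBS containing 1% milk, 0.2 mg/ml BSA, 0.5% salmon testes DNA and 0.03% Triton X-100. Binding intensity, obtained after Alexa488 anti-GST antibody detection and a 488 nm scan, is the highest Masliner-normalised natural-log median intensity across replicate spots of either probe orientation.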

| Sequence | gcPBM binding intensity (ln) |
| --- | --- |
| ATATGTACAAAATAAGCACACACAAAAAAAAAAAAA [CACACA_site8984] | 9.48 ± 0.45 |
| AAAAAAAAAAAAAATATATATATATATATATATATA [CACACA_negctrl_site540] | 10.1 ± 0.25 |
| TTTTTTTTTTTTTTTTGTACATAAATTTTTATTAGA [XGTACX_site6409] | 8.3 ± 0.35 |
| GCTTAATACAGAATAACACACAAAATAAATAAATAA [CACACA_site4041] | 9.08 ± 0.47 |
| TTTTTTTTTTTTTTTGCACACTTAAATTTGGTGGCT [CACACA_site5319] | 8.89 ± 0.53 |
| TATATTTGTGCGTGTACACATTTGAAAAAATATATA [CACACA_site5079] | 8.72 ± 0.44 |
| TTGGCTATAGCCAATTGTACTTTTTCTCTTTGGCTT [XGTACX_site1119] | 8.65 ± 0.54 |
| GACATATATACCAAACGTACATATGTGCAAGCATAA [XGTACX_site3089] | 9.07 ± 0.4 |
| TCTTGATTAACTTAAAAAAAAAAAAAAAAAAAAAAA [CACACA_negctrl_site458] | 8.02 ± 0.35 |
| CATATAATAAATAATTGTACTTGATATAATATTATG [XGTACX_site3562] | 8.62 ± 0.45 |
| ATAAATTATAATAACTGTACAAAAATAATATATTCA [XGTACX_site1856] | 8.73 ± 0.39 |
| TATATAATTATTTTTTGTACTCATAATAATATGAAA [XGTACX_site289] | 8.35 ± 0.44 |
| AATAATAATAAAAAGGTGCTGAAATATTTTTATTAT [GTGCAC_site9763] | 8.66 ± 0.46 |
| ATTATTAAGGTTTATTCAAAAAAGACGTTTTTAAAT [CACACA_negctrl_site1059] | 8.31 ± 0.46 |
| AGACACGTATACGATGCACACGTATGCTTTATATAT [CACACA_site9363] | 9.22 ± 0.26 |
| TATGAGAAAAAAAGTACATGCACAAAATGTATATGT [TGCATGCA_site789] | 8.89 ± 0.44 |
| ATTATATAAACCAAATGTACAAAAAGGTCGTAGTGG [XGTACX_site1298] | 9.13 ± 0.47 |
| CAACATTGTTCCTATTGTACATGAACTGTTCATACG [XGTACX_site4070] | 8.89 ± 0.4 |
| TTTATTTATTATTATGTACACACTATATTAAAACAT [CACACA_site700] | 8.82 ± 0.45 |
| AAATATATTTCTTTTTTTCTTATTATTAATTTGCTT [CACACA_negctrl_site1483] | 8.56 ± 0.57 |
| TATAGATTTATATACACATGCATTTTGGTAAAGAAA [TGCATGCA_site953] | 8.67 ± 0.45 |
| TATTTTTTTAATAACTGTACTTTTTTGTCAAATGGA [XGTACX_site4179] | 8.32 ± 0.49 |

| Sequence | gcPBM binding intensity (ln) |
| --- | --- |
| ATTGTAAGTAGACACACACACATATAGATGTATATA [CACACA_site6463] | 9.48 ± 0.28 |
| TTAGGATTGAAGAGTTGTACATACCTCTTATTTGTT [XGTACX_site1376] | 8.79 ± 0.54 |
| TATAAAATGTAATCTGAACACACATATTTTTTTAAT [CACACA_site8521] | 8.71 ± 0.42 |
| ATCATATATTATTTATGTACTTATTTATAATAATAT [XGTACX_site8257] | 8.76 ± 0.39 |
| TTAAAATTATAATACGTACACACCTTATCTTTTTGG [CACACA_site278] | 8.96 ± 0.49 |
| TGTTGTTTTATGTTGTATTGTAATATATTATATTAT [XGTACX_negctrl_site46] | 8.97 ± 0.35 |
| GGCGTATGTGTATATACACACCCACGTATATATATA [CACACA_site9046] | 9.34 ± 0.41 |
| ATATATAACGGGCACACACACATTTACGTATGAATA [CACACA_site1833] | 9.61 ± 0.39 |
| ATATATGGAGCTTATACACACTTTTATATTTTAACA [CACACA_site7757] | 8.81 ± 0.38 |
| TTGGGCATAATGTCATGTACACAAATAATTCTTTAT [XGTACX_site861] | 8.81 ± 0.62 |
| AAACGTGTGTATAATAGTACATAATTATAACGTAAT [XGTACX_site421] | 9.43 ± 0.38 |
| CGTATTTTTGGACATGCATGTACAAATAATCTTATG [TGCATGCA_site973] | 8.76 ± 0.4 |
| AAATTTGGCAAACACACACACACACCCACAGAGACA [CACACA_site4490] | 10.2 ± 0.13 |
| AATGTTTTTGTGAGATGTATAAATTTTATTTTATTT [XGTACX_negctrl_site413] | 8.61 ± 0.47 |
| AAAAAAATAATGTACACACACATATAGGTTTATATA [CACACA_site192] | 9.18 ± 0.46 |
| TAAGTTTTGTTCTTTTGTACATATAAGTATAGATCG [XGTACX_site4735] | 8.6 ± 0.46 |
| GTAGTGGTTGAATATACACACATATATAAATAAATA [CACACA_site7282] | 9.12 ± 0.4 |
| GTTTTCATCCAAAAAAGTACATTTATTTTTATACGA [XGTACX_site1039] | 8.49 ± 0.5 |
| ATGTATGAATTACATAGTACATAAGAAAAAATGAAG [XGTACX_site5942] | 9.05 ± 0.42 |
| GGAAAATCTTTATAATGTACATTATGATTATATAAT [XGTACX_site6256] | 8.77 ± 0.35 |
| AAATATAAAGTGCACACACACAAAAAAAGAAAAAAA [CACACA_site6452] | 9.33 ± 0.31 |
| TTAACTTAAGGAGAGTGTACAAATAATAAAATATCT [XGTACX_site4118] | 8.82 ± 0.45 |
